Assay results reported in PubChem BioAssay AID1240 (Sanford-Burnham Center for Chemical Genomics, 2008).
Out of some 50,000 compounds screened, about 800 (1.6%) showed an effect of 50% or more. The list shows a part of the results.

These compounds were tested against Bcl-2-like protein 10 (Homo sapiens) (UniProt Q9HD36) (assay: Phenotype converters, Bcl-B/TR3 peptide binding displacement, primary biochemical FP (AID 1240;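 further: 0% = Bcl-B with tracer peptide and DMSO and 100% = tracer peptide lacking Bcl-B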)). Settings: GST-Bcl-B / FITC-TR3 peptide fluorescence polarization; stronger effect = higher value; compound at 3.75 mg/L.
Chain of UniProt Q9HD36 (Q9HD36 whole entry, looked up): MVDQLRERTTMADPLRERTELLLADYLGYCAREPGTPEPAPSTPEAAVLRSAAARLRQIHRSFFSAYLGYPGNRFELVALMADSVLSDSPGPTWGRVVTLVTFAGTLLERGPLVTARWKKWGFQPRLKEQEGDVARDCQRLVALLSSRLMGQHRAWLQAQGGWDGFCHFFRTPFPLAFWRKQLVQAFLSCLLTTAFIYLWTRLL

Point of comparison: COc1cccc(N(CC(=O)Nc2ccc(C(C)C)cc2)S(=O)(=O)c2ccccc2)c1, displacement 7.3%. Against it:
- CCC12CN3CC(CC)(CN(C1)C3c1ccc([N+](=O)[O-])cc1)C2=O (configuration not stated) — lower, -8.3%
- C=CCNC(=O)C(=O)N/N=C/c1cccc(OC)c1 — higher, 8.9%
- Cc1ccc2oc(-c3ccc(NC(=O)c4cccnc4)cc3O)nc2c1 — lower, 3.4%
- CC(C)c1ccc(/C=N/N2CCN(c3ccccn3)CC2)cc1 — lower, -2.6%
- O=C(Nc1cccc2c1C(=O)c1ccccc1C2=O)c1ccc2c(c1)OCO2 — lower, 3.8%
- Cc1ccc(-c2cc(C(=O)N3CCN(c4cccc(Cl)c4)CC3)c3ccccc3n2)c(C)c1 — lower, 1.7%
- CCc1ccccc1N(CC(=O)Nc1ccc(OC)cc1)S(C)(=O)=O — lower, -1.2%
- COc1cc(Br)c(/C=c2/sc3nc4ccccc4n3c2=O)cc1OC — higher, 132%
- O=C(CSc1nnnn1-c1ccccc1)Nc1ccc(O)cc1 — lower, -14.5%
- CC(C)NCCN1CCn2c1nc1ccccc12 — higher, 10.5%
- COc1ccc(CC(=O)N2N=C3CCCCCC3C2(O)C(F)(F)F)cc1 (configuration not stated) — higher, 17.6%
- O=C1C(C=NCc2ccc(Cl)c(Cl)c2)=C(O)c2ccccc21 — lower, 2.5%
- COc1ccc(N2C=Nc3ccc(C)c4nc(C)cc2c34)cc1 — lower, -6.4%
- CC(Sc1ccc(Cl)cc1)C(=O)Nc1ccc(S(=O)(=O)N2CCOCC2)cc1 (configuration not stated) — higher, 8.8%
- Cc1cccc(NC(=O)CN2CCOCC2)c1C — higher, 11.6%
- c1ccc2cc3[nH]c(CN4CCOCC4)nc3cc2c1 — lower, 5.2%
- Cc1nc2cc(-c3cccc(Cl)c3)nn2c(C)c1Cl — higher, 10.7%
- Cc1ccc(C(=O)N/C(=C\c2cn(-c3ccccc3)nc2-c2ccc(F)cc2)C(=O)NCc2cccnc2)cc1 — higher, 9%
- COc1c(I)cc(I)cc1/C=N\NC(=O)c1ccc([N+](=O)[O-])cc1 — higher, 9.4%
- CC1C(C(=O)N(C=O)NC(=O)c2ccc(Cl)cc2)C2C=CC1C21CC1 (configuration not stated) — lower, -0.1%
- O=C(CN(c1ccc(F)cc1)S(=O)(=O)c1ccccc1)N1CCCC1 — lower, 0%
- O=C(NCCc1c[nH]c2ccccc12)/C(=C/c1cccc([N+](=O)[O-])c1)NC(=O)c1ccccc1 — lower, 4.5%
- O=C1/C(=C/c2ccc([N+](=O)[O-])cc2)NC(=S)N1c1ccccc1 — lower, 3.8%
- COc1ccc(-c2nc3ccccc3c(C(=O)Nc3ccc(C(C)=O)cc3)c2C)cc1 — lower, -19%
- O=C(COc1ccccc1)Nc1ccccc1-c1ccccc1 — lower, -0.3%
- O=c1[nH]c(SCc2ccccc2)nc2ccccc12 — lower, -2.7%
- O=C(COc1ccc(Br)cc1)Nc1ccc(OC(F)(F)F)cc1 — lower, -1.2%
- Cc1ccc(S(=O)(=O)N2CCN(S(=O)(=O)c3ccc(C)cc3)C2c2ccc(N(C)C)cc2)cc1 — higher, 11.7%
- COc1ccccc1N1CCN(/N=C\c2cc(OC)c(OC(C)=O)c(OC)c2)CC1 — lower, -6.7%
- COc1ccc(NC2=C(c3ccc(OC)cc3)C(=O)c3ccccc32)cc1 — higher, 12.7%
- O=C1NC(c2ccc(Br)cc2)=N/C1=C/c1ccccc1F — lower, -2.8%
- COc1ccccc1Oc1ccccc1C(=O)O — lower, 6.4%
- CCOc1ccc(N2C(=O)/C(=C/c3ccc(OC)c(OC)c3C(=O)O)SC2=S)cc1 — lower, 4.2%
- c1ccc(CN2CCC(N3CCN(C4CCC(c5ccccc5)CC4)CC3)CC2)cc1 (configuration not stated) — lower, -2.9%
- Cc1sc(NC(=O)c2ccc(Br)o2)c(C(N)=O)c1C — higher, 10%
- Cc1cccc(NC(=O)c2ccc(OC3CSC3)cc2)c1 — lower, -4.7%
- Cc1ccccc1/C=N/N1CCN(Cc2cccc3ccccc23)CC1 — higher, 10.6%
- O=C(NCCCNc1ccc([N+](=O)[O-])cc1C(F)(F)F)c1ccc(Cl)cc1 — lower, -3.7%
- CCN(CC)C(=O)COc1ccc2oc(C)c(C(=O)OC)c2c1 — lower, 5.9%
- Cc1ccc(C)c(OCCOCCOc2ncnc3ccccc23)c1 — higher, 18.4%
- CC1(C)N([O-])c2cc([N+](=O)[O-])ccc2[N+]1=O — higher, 35.3%
- O=C(O)/C=C\C(=O)N/N=C/c1ccccc1 — higher, 9.4%
- O=C(CSc1nc(-c2ccccc2)c(-c2ccccc2)o1)Nc1ccc([N+](=O)[O-])cc1 — lower, 2.5%
- COc1cc(C(=O)N/N=C(\C)c2ccc(Cl)s2)ccc1O — lower, 0.2%
- O=C1NC(=S)N(c2ccccc2)C(=O)/C1=C/c1cc(Cl)c(O)c(Cl)c1 — lower, -10.9%
- CCCn1c(=O)c(C(=O)Nc2cccc(C)n2)c(O)c2ccccc21 — higher, 21.8%
- COc1ccc(/C=C/C(=O)Nc2ccccc2Cl)cc1Br — higher, 9.2%
- CCOc1cc(OCC)cc(C(=O)Nc2cc(C)ccn2)c1 — higher, 12.6%
- COc1ccc(-c2nc3cc(NC(=O)c4ccc(F)cc4)ccc3o2)cc1Cl — lower, 0.9%
- Cc1ccc(-n2c(Cc3ccccc3)nc3c(cnn3-c3ccccc3)c2=O)cc1C — lower, 1%
- CN(C)CCOC(=O)CCN1C(=O)/C(=C/c2c(Cl)cccc2Cl)SC1=S — lower, -16.5%
- Cc1ccc([N+](=O)[O-])cc1NC(=O)C1CC1(c1ccccc1)c1ccccc1 (configuration not stated) — lower, -3.5%
- Cc1ccc(C(=O)Nc2ccc(Br)cc2)cc1S(=O)(=O)Nc1ccc(Cl)cn1 — lower, -10.9%
- COc1cc2c(cc1C)/C(=N/OC(=O)c1ccc(OC)c([N+](=O)[O-])c1)CCC2 — lower, -8.4%
- CCOC(=O)c1ccccc1NCN1C(=O)CSC1=O — higher, 12.4%
- O=C(NC(=S)Nc1cc(Cl)ccc1Cl)c1ccc(Cl)cc1 — lower, -8%
- Cc1ccc(C(=O)NNC(=O)c2cc3ccccc3cc2O)cc1 — lower, -23.2%
- N#Cc1c(N)nc(SCc2ccccc2)c(C#N)c1-c1cccs1 — lower, -10.4%
- O=C1NC(=O)/C(=C\c2ccc(Oc3ccc(C(F)(F)F)cc3[N+](=O)[O-])c(Cl)c2)S1 — lower, 5.5%
- COc1cc(/C=C2/SC(=S)N(CC(=O)Nc3ccccc3C(=O)O)C2=O)cc(OC)c1OC — higher, 45.9%
- Cc1ccc(NC(=O)C(=O)NCC(O)c2ccccc2)cc1 (configuration not stated) — lower, 6%
- O=C(CCCOc1ccc(Cl)cc1Cl)NNC(=O)c1cccc(Br)c1 — lower, -5.4%
- NC(=O)c1ccc(NC(=O)c2cc3ccccc3o2)cc1 — lower, -8.2%
- CCN=C(Nc1ccc2c(c1)OCO2)SC1CC(=O)N(c2ccc(Cl)cc2)C1=O (configuration not stated) — lower, -6.4%
- Cc1ccc(S(=O)(=O)Nc2cc(S(=O)(=O)c3ccccc3)c(O)c3ccccc23)cc1 — higher, 21.9%
- O=C1NN(c2ccc(I)cc2)C(=O)/C1=C\c1ccccc1O — lower, 0.5%
- O=C(Cc1ccccc1)Nc1sc2c(c1C(=O)Nc1ccc(Cl)cc1)CCC2 — lower, -6.9%
- CCOc1cc2c(C(=O)OC)c(C)oc2cc1Br — lower, 7.1%
- O=C(NNC(=O)c1ccccc1Cl)c1ccc(O)cc1O — higher, 22.6%
- Cc1cc2c(cc1C)CN(c1cccc(C(=O)N/N=C/c3ccc(O)c(O)c3)c1)C2 — higher, 8.7%
- O=C(Nc1nc(-c2ccccc2)cs1)C1c2ccccc2Oc2ccccc21 — lower, -0.6%
- CC(Cc1ccccc1)N=Cc1c(O)[nH]c2ccccc12 (configuration not stated) — lower, -10%
- O=C(Nc1ccc(Sc2ccc([N+](=O)[O-])cc2)cc1)c1cccs1 — lower, -7.1%
- COC(=O)CN(CCc1ccccc1)S(=O)(=O)c1ccc(OC)c(OC)c1 — lower, 1.2%
- CCCOc1cccc(C(=O)Nc2cc(NC(=O)c3cccc(OCCC)c3)cc(C(=O)O)c2)c1 — higher, 9.2%
- CSc1ccccc1NC(=O)c1cc2nc(-c3cccs3)cc(C(F)(F)F)n2n1 — lower, -3.3%
- CC1=NN(c2ccccc2)C(=O)C1C(C)C[N+](=O)[O-] (configuration not stated) — lower, -9.8%
- CC(C)Oc1cc2oc(=O)c3c(c2cc1Cl)CCC3 — lower, -6.9%
- Cc1ccccc1NCC(=O)N/N=C\c1cc(Cl)ccc1O — lower, -7.7%
- C/C=C/COC(=O)C1=C(C)NC(=O)NC1c1cc(Cl)c(O)c(OC)c1 (configuration not stated) — higher, 8.4%
- Cc1cc(=O)[nH]c(Nc2nc3ccccc3o2)n1 — higher, 10.4%
- Cc1cc(Cn2c(C)nc3ccccc32)c(C)cc1Cn1c(C)nc2ccccc21 — lower, -10.9%
- O=C1/C(=C\c2ccccc2)SC(=S)N1c1cccc(C(F)(F)F)c1 — lower, -0.2%
- CCN(CC)C(=O)C(NC(=O)c1ccc([N+](=O)[O-])cc1)C12CC3CC(CC(C3)C1)C2 (configuration not stated) — higher, 9.8%
- COc1ccc(CN2CCN(C3CCN(Cc4ccccc4)CC3)CC2)cc1OCc1ccccc1 — lower, -14%
- O=[N+]([O-])c1ccc(CSc2nnc(-c3ccncc3)n2-c2ccccc2)cc1 — lower, 1%
- CCOc1ccc(NC(=O)CN(Cc2ccccc2)S(=O)(=O)c2ccc(OC)cc2)cc1 — lower, -2.4%
- CCCOc1cccc(C(=O)Nc2cc(C(=O)OC)cc(C(=O)OC)c2)c1 — lower, 4%
- O=C1C(c2ccccc2)=C(c2ccccc2)C(=O)N1O — higher, 14.8%
- Cc1cc(/C=C2\C(=O)NC(=S)N(c3ccccc3)C2=O)c(C)n1-c1cccnc1 — lower, 3.9%
- COc1ccc(-n2nc3cc(C)c(NC(=O)c4ccc([N+](=O)[O-])cc4)cc3n2)cc1 — lower, 3%
- Cn1c(/C=C/c2cccnc2)nc2ccccc2c1=O — higher, 7.6%
- CCOc1ccc(-c2n[nH]c(=S)n2-c2ccccc2)cc1 — lower, -6.1%
- Cc1ccccc1S(=O)(=O)NC(=O)C(C)O (configuration not stated) — lower, 1%
- O=C(NCCC(c1ccccc1)c1ccccc1)Nc1cc(F)c(F)cc1Cl — lower, -13.5%
- Cn1c2ccc(Br)cc2c2nc3cc4ccccc4cc3nc21 — lower, -11%
- COc1ccccc1OC1=NS(=O)(=O)c2cc([N+](=O)[O-])ccc21 — lower, -6.5%
- O=C(Nc1ccc2ccccc2c1)c1cc([N+](=O)[O-])ccc1Br — lower, 3%
- O=C(Nc1cccc(F)c1)C1CC(=O)N(c2ccc(Br)cc2)C1 (configuration not stated) — lower, -2.4%
- COC(=O)CCC(=O)Nc1ccc(C(=O)c2ccccc2)cc1 — lower, 0.7%
- COc1cccc(/C=C2/SC(N)=NC2=O)c1O — lower, 5.3%
- Cc1ccc(C(=O)NC(=S)Nc2c[nH]c(=O)[nH]c2=O)cc1 — lower, -8%
- Cc1ccc(C(=O)N/C(=C\c2ccc(Cl)cc2)C(=O)NCC(C)C)cc1 — higher, 13.4%
- Cc1cccc(C(=O)Nc2ccc(Cl)cc2C)c1 — higher, 8%
- COc1ccccc1/C=C1/SC(=S)N(C(C)C(=O)O)C1=O (configuration not stated) — lower, -1.5%
- C/C(C=O)=C\c1ccc(/C=C(C)/C=C2/SC(=S)N(c3ccccc3)C2=O)cc1 — higher, 19.7%
